Hit rate of the full screen: of about 43,000 compounds, about 200 (0.47%) were called active. Not shown: some 12% with an inconclusive outcome. Calls come from the whole dose curve; as a rule, active = well fitted cell-killing curve with a large enough effect; inconclusive = small, poorly fitted or top-dose-only effect, or effect the other way; inactive = flat fitted curve, though single readings scatter. This is one part of the list.
Experiment: Cell viability qHTS assay in S16 Pmp22-F2sN cells; note: nearly all actives have a fitted effect of over 65% in size
Conditions: S16 Pmp22-F2sN Schwann cells (luciferase reporters placed in the Pmp22 gene) viability, CellTiter-Glo, 24 h; series mostly up to 57.5 µM; activity change, negative = cytotoxicity: at the top concentration
In short: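 Rat S16 Schwann reporter line, 24 h treatment with library compounds delivered at 23 nL per well. Cell viability by CellTiter-Glo luminescence.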
% is set by controls: 0 for no effect and ±100 for the full control effect.

| Compound | activity change, negative = cytotoxicity |
| --- | --- |
| Cc1cn2c(=O)cc(COc3cccc(NC(=O)c4ccccc4C)c3)nc2s1 | inactive: 0.562% |
| CCOc1ccc(CNC(=O)C2CCN(c3nnc(-n4cccc4CNc4ccc(C)cc4)s3)CC2)cc1OC | inactive: 0.162% |
| CCc1c(C)nc(SCC(=O)N2CCN(c3ccccc3OC)CC2)[nH]c1=O | inactive: 21.4% |
| CCCCSCCCNC(=O)CN1C(=O)c2cccnc2Oc2ccc(Cl)cc21 | inactive: 3.67% |
| CCOc1ccc(-c2nonc2NC(=O)c2oc3cc(C)ccc3c2C)cc1 | inactive: 3.23% |
| COc1ccc(OC)c(NC(=O)c2cc3c(=O)oc4ccccc4c3s2)c1 | inactive: -0.751% |
| Cc1ccc(C)c(NC(=O)c2ccc3c(O)c(S(=O)(=O)c4ccc(Cl)cc4)c(=O)[nH]c3c2)c1 | inactive: 4.41% |
| Cc1cc2c(cc1S(=O)(=O)NCc1ccccc1Cl)OCCN2C | inactive: 3.71% |
| Fc1ccc(-c2noc3ncnc(N4CCN(c5ccccc5)CC4)c23)cc1 | inactive: -7% |
| COc1ccc(S(=O)(=O)N2CCN(c3ccccc3F)CC2)cc1-c1noc(C)n1 | inactive: 10% |
| O=C(NCc1ccc(F)cc1)c1ccc2c(Cl)c3c(nc2c1)CCCC3 | inactive: 1.21% |
| Cc1ccc(NC(=O)c2cnn3c(C(F)F)cc(-c4ccccc4)nc23)c(C)c1 | inactive: 7.24% |
| COc1ccc(OC)c(NC(=O)C2CCCN(S(=O)(=O)c3c(C)nn(C)c3C)C2)c1 (configuration not stated) | inactive: 7.35% |
| Cc1ccc(NC(=O)Nc2nnc(N(CC(C)C)CC(C)C)s2)cc1Cl | inactive: 1.8% |
| CCOC(=O)c1ccc(NC(=O)CCCc2nc(-c3ccccc3Cl)no2)cc1 | inactive: 2.98% |
| CCOc1ccc(-c2cc(NC(=O)Nc3cccc(C(C)=O)c3)c(C(=O)OC)s2)cc1 | inactive: -0.288% |
| COc1ccc(NC(=O)C2=C(C)Nc3ncnn3C2c2ccc(O)cc2)cc1 (configuration not stated) | inactive: 3.81% |
| CCc1ccc(CNC(=O)Cc2ccc(NC(=O)N3CCSc4ncccc43)cc2)cc1 | inactive: 2.14% |
| COc1cccc(N2CCN(C(=O)C(CCSC)NS(=O)(=O)c3ccc4c(c3)oc(=O)n4C)CC2)c1 (configuration not stated) | inactive: -4.13% |
| CCOC(=O)CSc1nc2ccc(NC(=O)c3ccc(C)cc3)cc2s1 | inactive: 3.82% |
| O=C(O)c1ccc2c(c1)ncn2-c1ccc(F)c(F)c1 | inactive: -6.1% |

| Compound | activity change, negative = cytotoxicity |
| --- | --- |
| Cc1nn(CCCC(=O)NCc2ccc(F)cc2)c(=O)c2c1sc1ccccc12 | inactive: 15.4% |
| CCOc1ccc(N2CC(c3nc4ccccc4n3Cc3cccc(Cl)c3)CC2=O)cc1 (configuration not stated) | inactive: -24% |
| CCOc1ccc2nc(NC(=O)c3cc(=O)c4ccc(C)cc4o3)sc2c1 | inactive: 3.31% |
| CCN1CCSc2ccc(C(=O)NC(C)c3ccccc3)cc21 (configuration not stated) | inactive: -23% |
| Cc1cc(C)cc(C(=O)Nc2ccc(-c3nc4ncccc4o3)cc2)c1 | inactive: 0.848% |
| Cc1c2cnn(CC(=O)N3CCN(c4ccc(F)cc4)CC3)c(=O)c2c(C)n1Cc1ccc(F)cc1 | inactive: -21.3% |
| Cc1ccc(CNC(=O)Cn2nc(C)n3cccc3c2=O)cc1 | inactive: 1.6% |
| Cc1ccc(-n2ncc(C(=O)N3CCN(c4cccc(C)c4)C(C)C3)c2C2CCN(C(=O)OC(C)(C)C)CC2)cc1 (configuration not stated) | inactive: -12.6% |
| COc1c(C)cc(S(=O)(=O)NCCc2c(C)[nH]c3ccccc23)c(C)c1C | inactive: -3.45% |
| Cc1ccc(Cl)cc1Nc1nc2ccccc2n2c(C)nnc12 | inactive: -3.81% |
| CCCOc1ccccc1Cn1c(=O)sc2ccccc21 | inactive: 6.46% |
| N#Cc1ccc(-c2cccs2)nc1SCc1ccc(Cl)cc1Cl | inactive: -0.633% |
| CCOc1ccc(NC(=O)N2CCOc3ccccc32)cc1 | inactive: -2.61% |
| CCc1ccccc1NC(=O)CSc1nnc(-c2nonc2NC(C)=O)n1C | inactive: -11.3% |
| Cc1[nH]c(=O)[nH]c(=O)c1C1N2CC3(C(C)C)CN1CC(C(C)C)(C2)C3=O (configuration not stated) | inactive: 1.44% |
| CCOC(=O)c1ccc(NC(=O)CN2C(=O)c3cccnc3Oc3ccc(Cl)cc32)cc1 | inactive: -3.61% |
| Cc1ccc(N2CCn3c2nc2c3c(=O)n(CCc3ccccc3)c(=O)n2C)cc1C | inactive: 12.7% |
| Cc1cc(NS(=O)(=O)c2ccc(NC(=O)COc3ccc(Br)cc3C)cc2)no1 | inactive: -0.26% |
| CCCCc1nn2c(=O)cc(COC(=O)c3ccccc3NC(=O)C(C)(C)C)nc2s1 | inactive: -1.45% |
| COc1ccc(C(=O)Nc2ccc3nc4n(c(=O)c3c2)CCCCC4)cc1OC | inactive: 2.62% |
| Cc1ccc(Cl)cc1NC(=O)Cn1nc2c(cc1=O)CC(C)CC2 (configuration not stated) | inactive: 9.66% |

| Compound | activity change, negative = cytotoxicity |
| --- | --- |
| CCOc1ccc(NC(=O)CN2C(=O)COc3ccc(S(=O)(=O)Nc4ccccc4)cc32)cc1 | inactive: 4.1% |
| CC(C)Cn1c(=O)c2ccccc2n2c(-c3cccc(Cl)c3)nnc12 | inactive: 6.73% |
| COc1ccc(Cl)c(Cn2c(NCCN)nc3c2c(=O)n(C)c(=O)n3C)c1 | inactive: -0.141% |
| COc1ccc(C(=O)NCc2nnnn2-c2ccc(C)c(C)c2)cc1 | inactive: -11.6% |
| O=C(NNc1ncnc2c1cnn2-c1ccccc1)c1cccc(Cl)c1 | inactive: 6.62% |
| Cc1cc(Nc2cccc(Cl)c2C)n2nc(Cc3ccccc3)nc2n1 | inactive: -14.9% |
| CCN(CC)C(=O)CSc1nc2cc3c(cc2c(=O)n1Cc1ccc(C(=O)NCCc2ccc(OC)c(OC)c2)cc1)OCO3 | inactive: 6.1% |
| CCOc1ccccc1NC(=O)Cn1c(=O)n(Cc2ccccc2)c(=O)c2c(C)c(C(=O)N(C)C)sc21 | inactive: 5.8% |
| COc1cc(Cl)c(C)cc1NC(=O)c1cn(CC(C)C)c(=O)c2cc(OC)c(OC)cc12 | inactive: 3.9% |
| COc1cc(CN(CC2CCCO2)C(=O)c2ccccc2F)cc(OC)c1OC (configuration not stated) | inactive: 22.5% |
| CC(C)OCCCNC(=O)CCCn1c(SCC(=O)c2ccc(Br)cc2)nc2c(sc3ccccc32)c1=O | inactive: 23% |
| CC(NC(=O)c1ccccc1)c1nc2ccccc2n1Cc1ccc(Cl)cc1 (configuration not stated) | inactive: 0.455% |
| CCC(C(=O)OCc1cc(=O)n2nc(CCOC)sc2n1)c1ccccc1 (configuration not stated) | inactive: -8.1% |
| Cc1ccccc1NC(=O)c1nc(-c2ccncc2)no1 | inactive: -1.23% |
| COc1cccc(N2CCN(c3nc4ccc(C(=O)c5ccccc5)cc4n4c(C)nnc34)CC2)c1 | inactive: 7.29% |
| Cc1ccc(NC(=O)Cn2c(CCC(=O)O)ccc2-c2cccs2)cc1 | inactive: 2.15% |
| Cc1ccc(-n2ncc(C(=O)Nc3ccc(C)c(F)c3)c2C2CCN(C(=O)OC(C)(C)C)CC2)cc1C | inactive: 0.518% |
| CCOc1cc(C2c3c(oc4ccccc4c3=O)C(=O)N2Cc2ccc3c(c2)OCO3)ccc1O (configuration not stated) | inactive: 5.67% |
| Cc1ccc(CNC(=O)CCCCn2c(=O)c3ccccc3n(Cc3ccc(Cl)cc3)c2=O)cc1 | inactive: 7.43% |
| Cc1nc2sc(C(=O)NCc3ccc(Cl)cc3)c(NC(=O)c3ccccc3)c2c(C)c1C | inactive: 0.278% |
